Measured values published in the supplement of paper PMC4967469.
IC50 is the fitted dose that halves viability relative to control wells, and lower means more sensitive; fits outside the tested doses are given as limits. AUC, from the same fit, is the share of area under the viability curve across the 256-fold dose range; the more sensitive the line, the further below 1. An inferred top dose is not printed in the source and was worked back from the curve model. For some assays here: Drugs with an entry number were screened twice under separate entries, and the two screens often disagree.

Columns and labels:
Assay in all cases: Viability of human cancer cell lines after 72 h of drug (GDSC screen)
BIRB 0796 = compound: Cc1ccc(-n2nc(C(C)(C)C)cc2NC(=O)Nc2ccc(OCCN3CCOCC3)c3ccccc23)cc1 [BIRB 0796]; details: top dose 10 µM; top dose inferred
Description: (§1)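 Human cancer cell lines in 384-well plates, medium with 10% serum, drug for 72 h over a 256-fold dose range (nine 2-fold or five 4-fold steps up to the top dose). Adherent lines were fixed and stained with the nucleic acid dye Syto60, suspension lines read with resazurin; signal relative to control wells, capped at 0 and 100%. One two-parameter sigmoid per drug and line, fitted in a mixed model over all curves with the slope shared within a line.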

SB-525334 = compound: Cc1cccc(-c2[nH]c(C(C)(C)C)nc2-c2ccc3nccnc3c2)n1 [SB-525334]; details: top dose 20 µM; top dose inferred
Description: as §1

Olaparib = compound: O=C(c1cc(Cc2n[nH]c(=O)c3ccccc23)ccc1F)N1CCN(C(=O)C2CC2)CC1 [Olaparib]
Description: as §1

Shikonin = compound: CC(C)=CC[C@@H](O)C1=CC(=O)c2c(O)ccc(O)c2C1=O [Shikonin]; details: top dose 16 µM; top dose inferred
Description: as §1

HG-5-113-01 = compound: CNC(=O)c1ccc(Nc2cc(Nc3ccccc3S(=O)(=O)C(C)C)c3cc[nH]c3n2)nc1 [HG-5-113-01]; details: top dose 10 µM; top dose inferred
Description: as §1

VX-702 = compound: NC(=O)c1ccc(N(C(N)=O)c2c(F)cccc2F)nc1-c1ccc(F)cc1F [VX-702]; details: top dose 2 µM; top dose inferred
Description: as §1

BMS-536924 = compound: Cc1cc(N2CCOCC2)cc2[nH]c(-c3c(NC[C@@H](O)c4cccc(Cl)c4)cc[nH]c3=O)nc12 [BMS-536924]; details: top dose 4 µM; screen: GDSC drug entry 1091; top dose inferred
Description: as §1

[1] = top dose 5 µM, screen: GDSC drug entry 1017, top dose inferred
[2] = top dose 10 µM, screen: GDSC drug entry 1495

| Cell Line | AUC (BIRB 0796) | IC50 (BIRB 0796) [µM] | AUC (SB-525334) | IC50 (SB-525334) [µM] | AUC (Olaparib; [1]) | IC50 (Olaparib; [1]) [µM] | AUC (Olaparib; [2]) | IC50 (Olaparib; [2]) [µM] | AUC (Shikonin) | IC50 (Shikonin) [µM] | AUC (HG-5-113-01) | IC50 (HG-5-113-01) [µM] | AUC (VX-702) | IC50 (VX-702) [µM] | AUC (BMS-536924) | IC50 (BMS-536924) [µM] |
| --- | --- | --- | --- | --- | --- | --- | --- | --- | --- | --- | --- | --- | --- | --- | --- | --- |
| OVTOKO (ovary, adherent) | 0.921 | > 10 | 0.941 | > 20 | 0.944 | > 5 | 0.957 | > 10 | 0.506 | 1.04 | 0.721 | 3.19 | 0.945 | > 2 | 0.868 | > 4 |
| PANC-02-03 (pancreas, adherent) | 0.904 | > 10 | 0.976 | > 20 | 0.978 | > 5 | 0.964 | > 10 | 0.456 | 0.739 | 0.806 | 6.32 | 0.976 | > 2 | 0.905 | > 4 |
| PCI-4B (head and neck, adherent) | 0.987 | > 10 | 0.976 | > 20 | 0.924 | > 5 | 0.893 | > 10 | 0.28 | 0.247 | 0.689 | 2.05 | 0.974 | > 2 | 0.904 | > 4 |
| PCI-6A (head and neck, adherent) | 0.967 | > 10 | 0.695 | 4.34 | 0.914 | > 5 | 0.955 | > 10 | 0.461 | 0.782 | 0.8 | 4.72 | 0.942 | > 2 | 0.965 | > 4 |
| PCI-30 (head and neck, adherent) | 0.979 | > 10 | 0.974 | > 20 | 0.898 | > 5 | 0.954 | > 10 | 0.704 | 4.34 | 0.852 | > 10 | 0.929 | > 2 | 0.982 | > 4 |
| PL4 (pancreas, adherent) | 0.924 | > 10 | 0.98 | > 20 | 0.985 | > 5 | 0.963 | > 10 | 0.417 | 0.589 | 0.702 | 2.36 | 0.985 | > 2 | 0.905 | > 4 |
| RERF-LC-KJ (lung adenocarcinoma, adherent) | 0.96 | > 10 | 0.954 | > 20 | 0.987 | > 5 | 0.986 | > 10 | 0.568 | 1.55 | 0.882 | > 10 | 0.985 | > 2 | 0.96 | > 4 |
| RKN (ovary, adherent) | 0.95 | > 10 | 0.972 | > 20 | 0.974 | > 5 | 0.915 | > 10 | 0.619 | 2.17 | 0.842 | 7.59 | 0.985 | > 2 | 0.944 | > 4 |
| SBC-3 (small cell lung carcinoma, adherent) | 0.976 | > 10 | 0.831 | 11.1 | 0.934 | > 5 | 0.903 | > 10 | 0.509 | 1.06 | 0.67 | 1.76 | 0.988 | > 2 | 0.884 | 3.64 |
| SF295 (glioma, adherent) | 0.966 | > 10 | 0.844 | 16.1 | 0.955 | > 5 | 0.91 | > 10 | 0.469 | 0.818 | 0.757 | 3.7 | 0.975 | > 2 | 0.952 | > 4 |
| SKN (uterus, adherent) | 0.961 | > 10 | 0.982 | > 20 | 0.914 | > 5 | 0.905 | > 10 | 0.457 | 0.743 | 0.721 | 3.06 | 0.972 | > 2 | 0.917 | > 4 |
| SW626 (ovary, adherent) | 0.983 | > 10 | 0.933 | > 20 | 0.982 | > 5 | 0.962 | > 10 | 0.424 | 0.596 | 0.758 | 4.07 | 0.981 | > 2 | 0.893 | > 4 |
| SW1271 (small cell lung carcinoma, adherent) | 0.976 | > 10 | 0.885 | > 20 | 0.984 | > 5 | 0.969 | > 10 | 0.399 | 0.505 | 0.819 | 6.82 | 0.984 | > 2 | 0.887 | > 4 |
| TOV-21G (ovary, adherent) | 0.983 | > 10 | 0.976 | > 20 | 0.784 | 2.33 | 0.869 | > 10 | 0.444 | 0.692 | 0.665 | 1.88 | 0.947 | > 2 | 0.927 | > 4 |
| TOV-112D (ovary, adherent) | 0.985 | > 10 | 0.695 | 4.42 | 0.962 | > 5 | 0.944 | > 10 | 0.231 | 0.164 | 0.724 | 2.71 | 0.969 | > 2 | 0.89 | > 4 |
| TT2609-C02 (thyroid, adherent) | 0.955 | > 10 | 0.975 | > 20 | 0.964 | > 5 | 0.985 | > 10 | 0.316 | 0.295 | 0.779 | 4.37 | 0.964 | > 2 | 0.978 | > 4 |
| TYK-nu (ovary, adherent) | 0.979 | > 10 | 0.963 | > 20 | 0.938 | > 5 | 0.908 | > 10 | 0.57 | 1.57 | 0.77 | 4.07 | 0.971 | > 2 | 0.982 | > 4 |
